# Experimental data published in PMC4336329 (PLoS ONE, 2015).
# In all, about 310,000 compounds went through this assay and about 14,000 (4.5%) showed an effect of 50% or more. The effect is printed as a negative number. The list shows a part of the results.
# Target: human ether-à-go-go-related gene (hERG) potassium channel (human, UniProt Q12809)
# Assay: primary screen, population patch clamp on CHO cells stably expressing hERG
# 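Also: peak tail current of the secondary pulse compared with the same well before compound.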
# Sequence of human ether-à-go-go-related gene (hERG) potassium channel (Q12809 whole entry, looked up): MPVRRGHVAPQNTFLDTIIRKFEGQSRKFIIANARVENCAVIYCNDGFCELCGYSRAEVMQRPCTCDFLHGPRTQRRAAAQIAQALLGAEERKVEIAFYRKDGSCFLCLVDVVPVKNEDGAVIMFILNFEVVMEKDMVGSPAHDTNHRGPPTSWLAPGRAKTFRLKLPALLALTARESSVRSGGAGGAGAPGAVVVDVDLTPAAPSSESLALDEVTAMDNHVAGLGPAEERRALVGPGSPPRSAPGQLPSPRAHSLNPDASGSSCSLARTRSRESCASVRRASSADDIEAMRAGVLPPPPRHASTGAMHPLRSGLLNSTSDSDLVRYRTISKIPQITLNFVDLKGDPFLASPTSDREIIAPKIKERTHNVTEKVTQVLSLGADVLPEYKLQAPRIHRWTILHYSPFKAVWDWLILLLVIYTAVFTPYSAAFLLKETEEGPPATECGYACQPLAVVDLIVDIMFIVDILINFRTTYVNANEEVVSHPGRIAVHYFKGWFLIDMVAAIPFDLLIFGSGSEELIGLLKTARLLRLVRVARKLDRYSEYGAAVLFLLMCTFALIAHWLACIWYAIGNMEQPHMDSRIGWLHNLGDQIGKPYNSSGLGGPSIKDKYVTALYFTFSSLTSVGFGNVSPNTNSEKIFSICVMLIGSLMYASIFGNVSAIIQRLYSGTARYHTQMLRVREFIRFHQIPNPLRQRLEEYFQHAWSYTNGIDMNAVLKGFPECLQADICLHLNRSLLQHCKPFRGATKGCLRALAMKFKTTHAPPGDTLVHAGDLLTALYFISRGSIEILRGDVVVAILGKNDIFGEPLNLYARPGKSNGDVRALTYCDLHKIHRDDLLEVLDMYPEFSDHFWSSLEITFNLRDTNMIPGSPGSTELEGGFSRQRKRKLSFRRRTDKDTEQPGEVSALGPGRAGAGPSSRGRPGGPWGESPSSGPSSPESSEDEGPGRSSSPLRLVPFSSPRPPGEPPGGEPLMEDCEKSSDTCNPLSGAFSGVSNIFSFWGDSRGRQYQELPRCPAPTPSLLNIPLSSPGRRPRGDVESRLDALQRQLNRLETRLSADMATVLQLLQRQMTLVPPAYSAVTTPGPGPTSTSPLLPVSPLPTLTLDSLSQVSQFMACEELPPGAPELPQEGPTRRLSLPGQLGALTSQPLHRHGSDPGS
row,Structure (SMILES),"hERG current change (%, negative = inhibition) at 10uM [%]"
1,O=C(Nc1ccc(N2CCOCC2)nc1N1CCOCC1)c1cccc(C(F)(F)F)c1,2.94
2,Cc1cc(NC(=O)CSc2nc(=O)cc(N)n2-c2ccc(F)cc2)no1,23.3
3,COCCCn1c(=O)c2ccccc2n(Cc2cc(C(=O)OC)ccc2OC)c1=O,-22.4
4,CCOC(=O)Cn1nnnc1CN(Cc1ccc(OC)cc1)Cc1cc2cc(C)ccc2[nH]c1=O,4.04
5,Nc1nc(N)c2c(n1)CCCC2,-3.49
6,O=C(CCCc1nc2ccccc2s1)Nc1nccs1,7.1
7,Cc1coc2c(C)c3oc(=O)c(CCC(=O)NCCN4CCOCC4)c(C)c3cc12,-24.6
8,CCN1CCN(CC(=O)N/N=C/c2cc(Br)cs2)CC1,-18.4
9,Cc1ccc(S(=O)(=O)N2CCCCC2)cc1C(=O)Nc1cccnc1,-33.5
10,O=C(O)CC(NC(=O)C(c1ccccc1)c1ccccc1)c1ccc(F)cc1 (stereo not drawn),0.78
11,OC(Cn1cncn1)(Cn1cncn1)c1ccc(F)cc1F,18.7
12,CCCC(=O)N(Cc1cc(=O)[nH]c2ccccc12)c1cccc(C)c1,0.414
13,COc1ccc(C2NCCc3c2[nH]c2ccccc32)cc1CSc1nc2ccccc2s1.Cl (stereo not drawn),-10.3
14,COc1ccc(S(=O)(=O)N2CCCCC2)cc1NC(=O)c1ccc(CS(C)(=O)=O)cc1,7.71
15,CN1CCC(N(C)CC(O)c2ccccc2)CC1.O=C(O)C(=O)O (stereo not drawn),-6.05
16,Cc1ccccc1CSCC(=O)Nc1c(C)n(C)n(-c2ccccc2)c1=O,-11.4
17,CCOC(=O)/C(C#N)=C/N1CCOCC1,-1.97
18,O=C(c1cccc(C(F)(F)F)c1)N1CCC(=O)N(C(CO)Cc2ccccc2)CC1 (stereo not drawn),15.5
19,Cc1ccc(CN2CCN(Cc3ccc(OCCO)cc3)CC2CCO)o1 (stereo not drawn),1.29
20,C#CCOC(=O)CCCC(=O)NCCCCCCCC,-9.97
21,CCOC(=O)c1ccc(NC(=O)NC2CC3CCC(C2)N3)cc1 (stereo not drawn),14.6
22,CCN(CC)S(=O)(=O)c1ccc(OC)c(N)c1,15.9
23,O=C(NCc1ccc(F)cc1)c1cnc2sccn2c1=O,-16.4

row,Structure (SMILES),"hERG current change (%, negative = inhibition) at 10uM [%]"
1,COCCn1c(C)cc(C2=NNC(=Nc3ccc(F)cc3)SC2)c1C,0.617
2,Cc1cc(S(=O)(=O)N2CCCC2)ccc1OCC(=O)Nc1ccc(C(N)=O)cc1,19.4
3,CCN1C(=O)/C(=C\N2CCCc3ccccc32)SC1=S,6.43
4,Cc1csc(=Nc2cccnc2)n1Cc1ccco1,-0.17
5,CCN(C(=O)COC(=O)c1[nH]c(C)c(C(C)=O)c1C)c1c(N)n(Cc2ccccc2)c(=O)[nH]c1=O,0.295
6,COc1ccc(CCNC(=O)c2cnccn2)cc1,10.8
7,COc1ccc(C(=O)N/C(=C/c2ccco2)C(=O)N2CCCCCC2)cc1,-18.2
8,COc1ccc(-n2c(SCC(=O)Nc3nc(C)cs3)nnc2-c2ccoc2C)cc1,-81
9,COc1cc(CCN2C(=O)c3cccc4cccc(c34)C2=O)c(S(=O)(=O)NCCCO)cc1OC,3.81
10,CS(=O)(=O)c1cnc(-c2ccccc2)nc1-c1ccccc1Cl,-5.98
11,CC(C)[C@@H](C(=O)N1CCN(C(=O)OC(C)(C)C)CC1)n1cc(CCO)nn1,8.11
12,CC1=NN(c2nc3ccccc3[nH]2)C(=O)/C1=C/N(C)C,2.03
13,O=C(Nc1ccccc1)O/N=C1/CCCc2occc21,2.17
14,CCCCc1cc(=O)oc2c(C)c(OCC(=O)N3CCCC3)ccc12,-64.8
15,CCN(CC)CC1(O)CCN(C(=O)c2ccc(Cl)c(Cl)c2)CC1,-5.61
16,O=S(=O)(c1ccc2ccccc2c1)N1CCCOC1,0.216
17,CCOc1ccccc1NC(=O)N1CCC(c2nc3ccc(C)cc3[nH]2)CC1,-55.5
18,O=C(CN(C(=O)CCC(=O)Nc1nccs1)c1ccccc1F)NCCc1ccccc1,25.1
19,CCOC(=O)CCc1c(C(=O)OCC)[nH]c(CC)c1C(=O)OCc1ccccc1,-17.2
20,Cc1cccc(C)c1N=C1C(=O)Nc2ccccc21,15.1
21,CCOC(=O)C1CCCN(CCC(=O)Nc2cc(C)ccc2C)C1.Cl (stereo not drawn),-67.2
22,O=C1C=C(c2ccccc2)C[C@@H](c2ccc(Cl)cc2)C1,14.3
23,Cc1ccc(N2C(=O)NC3(CCCCC3)C2=O)cc1,9.24

row,Structure (SMILES),"hERG current change (%, negative = inhibition) at 10uM [%]"
1,Cc1ccc(S(=O)(=O)c2nc(S(C)(=O)=O)sc2NCc2ccc3c(c2)OCO3)cc1,-13.6
2,Cn1cc([N+](=O)[O-])c(C(=O)N2CCN(Cc3ccc4c(c3)OCO4)CC2)n1,46.6
3,O=C(NNS(=O)(=O)c1ccccc1)c1cnn(-c2ccccc2)c1-n1cccc1,-9.66
4,O=C(NCCCN1CCOCC1)c1ccc2c(=O)n(-c3ccc(F)c(Cl)c3)c(=S)[nH]c2c1,9
5,CCC(=O)N(CCC(c1ccco1)C(C)C)Cc1ccccc1 (stereo not drawn),-7.5
6,CCOCN(C(=O)Cn1c(COC)nc2ccccc21)c1c(C)cccc1CC,-7.55
7,CCN(CC)CCCN1C(=O)c2oc3ccccc3c(=O)c2C1c1cccc(OC)c1OC (stereo not drawn),-6.45
8,Oc1ccc(-c2nccc(-c3cccs3)n2)cc1,-5.68
9,Nc1cc(Cl)ccc1Oc1ccccc1,-21.5
10,O=C(CCC(=O)NNC(=O)COc1ccc(Br)cc1Br)NCc1ccccc1,16.9
11,CCc1nnc(NC(=O)c2ccc(Cl)c(S(=O)(=O)N3CCc4ccccc43)c2)s1,9.33
12,CNc1ccc([N+](=O)[O-])cc1,7.82
13,CNC(=O)NC(=O)COc1c(F)c(F)cc(F)c1F,18.6
14,COc1ccc(C(=O)NCCCc2ccccc2)cc1,-1.98
15,O=C(NCCCN1CCOCC1)c1ccc2c(c1)N(Cc1ccccc1F)C(=O)c1ccccc1S2=O (stereo not drawn),-3.82
16,O=C(O)c1c[nH]c2ccc(F)cc2c1=O,10.1
17,O=C(Nc1ccccc1)OC1CCCCc2cccnc21 (stereo not drawn),2.42
18,CC(C)CCN1CCN(Cc2cnc(N3CCCC3)s2)CC1CCO (stereo not drawn),2.89
19,CC1Sc2ccc(S(=O)(=O)N3CCC(C(=O)Nc4cccc(Cl)c4)CC3)cc2NC1=O (stereo not drawn),10.9
20,O=C(CCCCCn1c(=S)[nH]c2ccc(Br)cc2c1=O)NCC1CCCO1 (stereo not drawn),5.29
21,O=C(COC(=O)c1cc(=O)c2ccccc2o1)Nc1cc(Cl)ccc1Cl,2.19
22,CC(=O)Nc1ccc(NC(=O)CSc2ncnc3sc(C)c(C)c23)cc1,8.58
23,CN(C(=O)c1ccc(Br)o1)C1(C)CCS(=O)(=O)C1 (stereo not drawn),13.4

row,Structure (SMILES),"hERG current change (%, negative = inhibition) at 10uM [%]"
1,CC(=O)N/C(=C/C(C)C)c1ccccc1,18.6
2,Cc1noc(C)c1Cc1ccc(O)cc1,1.98
3,COc1ccc(S(=O)(=O)Nc2c(C)nc3nc[nH]n3c2=O)cc1,25.4
4,Cc1nc(-c2ccc(C(=O)N3CCOCC3)cc2)cs1,3.92
5,O=C(Cn1nc(C(F)F)cc1C1CC1)NCCC1=CCCCC1,-1.8
6,Cc1cccc(Oc2ccccc2NC(=O)c2cnccn2)c1,-6.7
7,Cc1noc(C)c1S(=O)(=O)N(Cc1ccccc1)C(C)C,5.31
8,CCC(=O)c1ccc(OCCn2cnc3ccccc32)cc1.Cl,-27.5
9,O=C(CCCCCn1c(=S)[nH]c2cc3c(cc2c1=O)OCO3)N1CCN(C(=O)c2ccco2)CC1,-14.7
10,Clc1ccc(-c2n[nH]c3c2Cc2ccccc2-3)cc1Cl,22.4
11,COc1ccc(-n2c(SCC(=O)NCc3ccco3)nc3sc4c(c3c2=O)CCN(C)C4)cc1,-26.6
12,CC(=O)c1c(C)[nH]c(C(=O)OCC(=O)c2c(N)n(CC(C)C)c(=O)n(C)c2=O)c1C,1.12
13,CC1(C)Oc2ccc3ccc(=O)oc3c2/C(=C/Nc2cccc(O)c2)C1=O,14.2
14,COc1ccc(SC[C@H](Cc2ccccc2)N2CC[C@@H](NC(=O)OCc3ccccc3)CCC2=O)cc1,-10.2
15,O=C(Nc1ccc2c(c1)OCO2)c1ccc2nc[nH]c2c1,-14
16,NS(=O)(=O)c1ccc(NC(=O)NC2CCCCC2)cc1,4.96
17,COC(=O)c1ccc(NC(=O)c2ccccc2C(=O)Nc2ccc(C(=O)OC)cc2)cc1,-2.55
18,CCc1c(O)nc2ccccn2c1=O,0.476
19,CC(=O)C1=C(C)Nc2ncnn2C1c1ccc(Cl)cc1 (stereo not drawn),-2.58
20,CN(CCCCOc1ccc(F)cc1)Cc1ccccc1.O=C(O)C(=O)O,-54.7
21,COC(=O)c1ccc(COC(=O)CCS(=O)(=O)c2ccc(C)cc2)cc1,-12.7
